Some of the results follow. Further columns of the screen follow, without active or inactive calls. Most of these compounds were active or inconclusive in the main read-out, so they are no random draw. The note in brackets gives the kind of curve behind each potency; many fits are weak.
Assay: qHTS Assay for Lipid Storage Modulators (AID 1519)
Conditions: Drosophila S3 cells, BODIPY lipid droplet/cell ratio, laser cytometry; measured here: cell number channel AC50; cells loaded with oleic acid
In short: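 Cells seeded at 5,000 per well were treated with compounds over a concentration series and loaded with oleic acid (400 uM, as added). Lipid droplet fluorescence (488 nm excitation, 500-530 nm channel) was read by laser-scanning cytometry and normalized to 20 uM Triacsin C.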
Tags give direction and shape of the fitted curve.

Row | Compound | AC50
1 | CN(C)C1C(=O)C(C(N)=O)=C(O)[C@@]2(O)C(=O)C3=C(O)c4c(O)ccc(Cl)c4[C@@H](O)C3C[C@@H]12 (stereo partly specified) | 35.5 µM [falling, partial curve, poor fit]
2 | CCn1ccnc1C[C@@H]1COc2ccccc2O1 | 35.5 µM [rising, single point]
3 | Cc1cc(NC(=O)C2=C(O)c3ccccc3S(=O)(=O)N2C)no1 | 25.1 µM [rising, partial curve, poor fit]
4 | COc1cccc(Cn2c(=O)c(CCc3ccccc3)nc3cnc(N4CCOCC4)nc32)c1 | 3.98 µM [rising, full curve]
5 | O=C(Cc1ccc(Cl)cc1)c1c(O)cc(O)cc1O | 3.98 µM [rising, full curve, poor fit]
6 | CC(C)=CCC/C(C)=C\COc1c2ccoc2cc2oc(=O)ccc12 | 1.78 µM [rising, full curve]
7 | COc1ccccc1CNc1ccnc(-c2cccc(NS(C)(=O)=O)c2)n1 | 0.447 µM [rising, full curve]
8 | COc1ccc(C2CNC(=O)C2)cc1OC1CCCC1 (stereo unspecified) | 39.8 µM [rising, partial curve, poor fit]
9 | O=c1cc(-c2ccccc2O)oc2ccc3ccccc3c12 | 10 µM [rising, partial curve]
10 | COc1ccc(-n2c(=O)c(C)nc3cnc(N4CCOCC4)nc32)cc1 | 2.51 µM [rising, full curve]
11 | COc1ccc(-n2c(=O)c(C)nc3cnc(Nc4cccc(OC)c4)nc32)cc1 | 2 µM [rising, partial curve, poor fit]
